# Source: the RNAGym collection of RNA variant scans (doi:10.7554/elife.90254)
# Read counts are not given, so values of variants with three or more changes are uncertain.
# B1: LINE1-mini (parent)
# chain: GGCAGAGCUCAACACAGCGUGGCAAAGUGGCUGUGGCUAGACUGCC
# Variants of: B1
# Assay: self-cleavage, relative activity (ratio to wild type); higher = more cleavage; in vitro, sequencing; the parent is a self-cleaving ribozyme
row,Variant,self-cleavage
1,G7C C8A A24C A25U A26U G44C,0.2
2,G5C C18U C46A,0.04
3,G2C A11C G21C C31A,0.01
4,C3U C10U G22A,0.1
5,C23A A24C G36U C45U,0.89
6,A14C G17A G35U C37G,0.04
7,C8U C13U G19U U20A,0.84
8,A14U G19A U28A A39G,0.06
9,A6C A11U A24C,0.02
10,G5U C10U A11C G40C,0.03
11,G2C C15A C46G,0.11
12,G5A C8G A24G,0.05
13,G1U A12U C13U G35U,0.03
14,A6U C8G C15U C23A,0.08
15,A16G U34G G36U,0.01
16,A11U A12G U34A,0.02
17,C10G G27C A41U,0.02
18,U9C A14G G22C G36A G40C,0.01
19,G1U A4U A11C G21U C31G G35A U38C,0
20,U28G G30A G40U,0.02
21,A4U G5C U9A G30C C31G G44C,0.02
22,C8U G22A G44A,0.03
23,C3U A6U G21U G30U A39U,0.72
24,C15U G21U G29U,1.23

row,Variant,self-cleavage
1,A16U A25G G35A,0.03
2,G2C G27C C31A,0.04
3,A11U G21A G22A U43G,0
4,U9G A11G U32A C45A,0.03
5,A6U U34C G35A,0.11
6,C8G C13G C15U C37U G40C A41G,0.14
7,G1U C8G G19A,0.12
8,A16G C18U A25G U28C,0.01
9,C10A G35A C46U,0.01
10,G1U C3A C23U G35U C42A C45G,0.65
11,G1A C3A A11C U28G,0.09
12,A16U G30A C42G,0.14
13,A4G A6U C8U G19C C45G,0.04
14,A4G C15G G29U U32A,0.03
15,U28C G29U A39U C45U C46G,0.33
16,G1U C15A A24C A39G,0.07
17,U20G C31U C46G,0
18,A14G C15U G29C C31G C42U,0.04
19,G5U G19U A24C G44U,0.03
20,U9G G17C G19U U20G G21C G44U,0.02
21,C23U G27C G40A A41U C45U,0.13
22,A16C G33A G36C G40U,0.02
23,A4U A12G U20C,0
24,U9A A24C C31U,0

row,Variant,self-cleavage
1,A14C G27A A41G C45A,0.06
2,G17C C18A G27C C42U,0.01
3,C10U G27C C37A,0.02
4,C8U A26U G40A,0.2
5,G2C C15A G27C,0.08
6,G7C C18A U28G,0.01
7,G1A C13G G17U,0.02
8,C8U G27C G35U,0.13
9,C10A C23A G29A C37U,0.02
10,A11G C15A U34A G35C U38G,0.01
11,C8G U9A C45U,0.05
12,C10U A24U U28C,0.11
13,G1U A4G C13A C18G U28G G29A C37G C42A,0.15
14,G19U C23A G35U,0.14
15,C8U U32G C42U,0.04
16,C23U G36U C46A,1.03
17,G1C U9C C37G A41U,0.01
18,U9G A25G U32C,0.01
19,G1A C3A G40A,0.9
20,A4C C23U A25G C31U,0.08
21,G1U G5C C10A G22A,0.01
22,C3U A6G U9G U28A A41U,0.03
23,G1C C15U A25G A41C,0.02
24,G7U A11C C18U U28A,0.02

row,Variant,self-cleavage
1,G1A C8U C18U U20G A24U C42G,0.25
2,G7C C18A G40U,0.05
3,C15U G35A C42G,0.03
4,G30A G36A C37U U38G G44C,0.07
5,C3G A24C U43G,0.02
6,U9G C10G C15A U20A,0.03
7,C10U A24C G33U,0.02
8,A4C C8A C18A U20C G29C,0.09
9,G1C G21U A26C G40A,0.06
10,G33U U34A G35C,0.04
11,C13A U20C U34C C37A,0.03
12,U20C C23A G29C C37U U38C,0
13,C13U A14U C18G G36C,0.18
14,C13U C23G U28A,0.04
15,C10A G33U U38G G44U C45A,0.03
16,G5U C18A G22C,0.03
17,C10A U34A U38G G40U U43A,0.02
18,A16G G21U G29U C31G,0.05
19,C10A C13U A16G C46A,0
20,A11U G22C G29A,0.25
21,A4C G19A A26G U28G C46U,0.16
22,G1A G5U C10A G17U,0.04
23,C3A G5U G21U G35U,0.45
24,A4G G33C C37U,0.01

row,Variant,self-cleavage
1,A11U C23G A25U A26G,0.26
2,G17U C31U A41U,0.04
3,C13A G19U C37U,0.07
4,G2C A4G A24C,0.02
5,G2U U9C G33A G40A,0.02
6,C13U G29A G33C G36A A41U C42A,0.03
7,C18U G19A G44U,0.08
8,C10G G36A U43G,0.01
9,A6C A14C G33A,0.01
10,A4U U9A G19A,0.2
11,G1U G2C C3A A14G A41C,0.03
12,A12U A16U U20G A41C,0
13,C8A A12G U20A A24U G27U,0.03
14,G5C A6G C8G C13A A16U A39U G44U,0.02
15,C13U G29U C37G G44U,0.09
16,G22A G29U C45U,1
17,C8U A16U A25U,0.04
18,U9C C10U G44U,0.03
19,A6G G7U C10G,0.01
20,U9C A25U G36C,0.01
21,G22A U38G C42U,0.02
22,G1A A4G G19A G29A C31A,0.05
23,A4G C10A A16G G29U,0
24,C3G G7U C13U A14G G19U U34G,0.16

row,Variant,self-cleavage
1,C3G G7C U9G G21C G22C G30U C46G,0.01
2,G2A A11C G29A G30C G36C A41C G44U C45A C46U,0.01
3,C31U U32G G40U,0.04
4,C10G G19A G36C U38A,0.02
5,C18G G19A A24G,0.81
6,A4C C8U G17C G21C C31G A39U,0.02
7,G5U G27C U34A G44A,0.06
8,C8G G19A A39U,0.18
9,C18G G40A G44U,0
10,C3A A11C C13U,0.03
11,G7C C10A C15A C31G C42G U43C G44U,0.01
12,G17C G35U C37G,0.02
13,A6U G33U C37U G44A,0.02
14,A4U A11U U20G,0
15,G2U G21U A25G U34G,0.03
16,A6C G17A G19A C45A,0.81
17,G17U G22C G27U G30A,0.92
18,G1A G5A A6G G29U C45A,0.07
19,A16G G17C G36C U43C G44U,0.02
20,C10U G22U G40U,0.06
21,U9C C13A G29C,0.01
22,G2A C8A U9A A12U U32G,0.04
23,C3A A12C A14G G36A,0.03
24,C13A U32A C42A U43C G44U C45G,0

row,Variant,self-cleavage
1,G2C C3G C10A,0.04
2,C3A U28C C46A,0.1
3,C10G C13U A39C,0.03
4,A6G U32C G35A A39U,0.02
5,C18A C23A U32G A39U,0.03
6,G5U C10U C13G U32A C42A C45A,0.06
7,G2A A14G U38A,0.35
8,C15G A16C U34C,0.14
9,A4G G7U C8A,0.2
10,G2A G22C C23U U28G C45G,0.17
11,C3G G5A G7A C10A C18U,0.03
12,G2U C8U A26U,0.03
13,A14U C15G A25C,0.02
14,G17U G21A U28G C31A G36U,0.02
15,G1U U9A G29U G30A C37U,0.08
16,U9G C15G G21U C23A A24U C42A,0.02
17,G1C G7U C18G U34C,0.03
18,C3U U20C U38C,0.49
19,G29U G33U G40U,0.04
20,G1A G5C G7C C15A A25C U28G G29U A41U C46A,0.21
21,G1C C8G G40A,0.02
22,G1C C42G U43C,0
23,A4G G17C G36U,0.19
